Values joined by “and” are separate entries in the source; they are usually repeats but may differ in a detail not shown here. Identical values can stand only once. The whole screen tested about 410,000 compounds, of which about 5,000 (1.2%) were called active. This list was built around the results that the source calls inconclusive (neither active nor inactive); the mix of calls is not that of the screen. Calls come from the whole dose curve; as a rule, active = well fitted inhibition curve with a large enough effect; inconclusive = small, poorly fitted or top-dose-only effect; inactive = no such curve, though single readings can be large or run the other way. A potency beside an inconclusive call is a rough fit, not a confirmed value.
Experiment: qHTS for Inhibitors of TGF-b; note: nearly all actives have a fitted effect of over 65% in size
Settings: HepG2 CAGA-GFP TGF-b/SMAD3 reporter, GFP fluorescence, 18 h, TGF-beta stimulated, 500 pg/mL final; series mostly up to 46.1 µM; activity, negative = inhibition: at the top concentration
Summary of the method: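 Read-out: total well GFP (ex488/em500-530) summed from mean per-cell fluorescence. Cells: HEPG2 CAGA-GFP, 1% FBS DMEM, 18 h at 37 degrees C with 500 pg/mL final TGF-beta. Unstimulated wells served as the full-inhibition control; stimulated DMSO wells = 0%.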
With Cc1ccc2[nH]c(O)c(N=Nc3nc4ccccc4s3)c2c1 the “activity, negative = inhibition” value was inactive: -15.5%. With O=C1Nc2ccccc2OC1CC(=O)N1CCOCC1 (stereo unspecified) the Potency was inconclusive: 35.5 µM [inhibitor, single point]. With COc1ccc(CC(=O)Nc2ccc(-c3nnc(-c4ccccc4)o3)cc2)cc1OC the “activity, negative = inhibition” value was inactive: 0.867%. For O=C1C(=O)N(CCCN2CCOCC2)C(c2ccc([N+](=O)[O-])cc2)/C1=C(/O)c1ccc2c(c1)OCO2 (stereo unspecified), the “activity, negative = inhibition” value was inactive: -13.1%. In the case of CCc1[nH]c(C(=O)O)c(C)c1C(=O)OC, the “activity, negative = inhibition” value is reported as inactive: 13.2%. For CCN(CC)c1cc(C)c2cc(NC(=O)c3cc(OC)cc(OC)c3)ccc2n1, the Potency was inconclusive: 22.4 µM [inhibitor, single point]. For Cc1cccc(C(=O)Nc2c(C(=O)N3CCN(c4ccc(F)cc4)CC3)oc3ccccc23)c1, the “activity, negative = inhibition” value was inactive: -13.7%. In the case of CC1CCCN(c2nc3nonc3nc2Nc2ccccc2F)C1 (stereo unspecified), the Potency is reported as inconclusive: 14.1 µM [inhibitor, single point]. In the case of Cc1csc2sc(-c3ccnc(SCC(=O)NCc4ccccc4)n3)c(C)c12, the Potency is reported as inconclusive: 20 µM [inhibitor, single point]. For CCc1ccc2[nH]c(=O)c(CN(Cc3ccccc3OC)Cc3nnnn3Cc3ccco3)cc2c1, the Potency was inconclusive: 35.5 µM [inhibitor, single point]. For Cc1cccc(CCNS(=O)(=O)c2ccc3c(c2)NC(=O)C(C)S3)c1 (stereo unspecified), the Potency was inconclusive: 11.2 µM [inhibitor, partial curve, poor fit]. For COc1ccc(NC(=O)CCNS(=O)(=O)c2ccc3c(c2)CC(C)N3C(C)=O)cc1 (stereo unspecified), the “activity, negative = inhibition” value was inactive: 1.15%. With CCOc1ccc(C(=O)N2CCc3ccccc32)cc1 the “activity, negative = inhibition” value was inactive: -5.12%. In the case of c1ccc(-c2nc3c(ccc4ccccc43)[nH]2)nc1, the Potency is reported as inconclusive: 12.6 µM [inhibitor, partial curve, poor fit]. With COc1ccc(CCNC2CC(=O)N(CCc3ccccc3)C2=O)cc1OC (stereo unspecified) the “activity, negative = inhibition” value was inactive: -1.36%. In the case of O=C(CCl)N(Cc1ccccc1)c1ccccc1, the Potency is reported as active: 12.6 µM. For CN(C)CCNC(=S)Nc1cccc(Cl)c1, the “activity, negative = inhibition” value was inactive: -3.37%. For CC1=C(C)C(O)N(Cc2ccccc2)C1=O (stereo unspecified), the “activity, negative = inhibition” value was inactive: 8.14%. In the case of Cc1ccc(N2C(=O)CC(N(CCc3ccccc3)C(=S)Nc3ccc(N(C)C)cc3)C2=O)cc1 (stereo unspecified), the Potency is reported as inconclusive: 35.5 µM [inhibitor, partial curve, poor fit]. In the case of CC1(C)CN(c2ccccc2)N(C(=O)c2ccc(F)cc2)C1=O, the “activity, negative = inhibition” value is reported as inactive: -0.463%. With N=c1sccn1CC(=O)Nc1cc(Cl)ccc1Oc1ccccc1 the Potency was inconclusive: 35.5 µM [inhibitor, single point]. In the case of CC1CCN(C(=O)c2ccc3c(c2NCCO)C(=O)c2ccccc2C3=O)CC1, the Potency is reported as inconclusive: 22.4 µM [inhibitor, single point]. For CCN1CCN(c2ccc(S(=O)(=O)N3CCCCC3)cc2NC(=O)/C=C/c2ccc(F)cc2)CC1, the Potency was inconclusive: 11.2 µM [inhibitor, partial curve, poor fit]. For CCCCn1nc(C(=O)N(C)CC(=O)Nc2ccc(F)c(F)c2F)ccc1=O, the “activity, negative = inhibition” value was inactive: -6.24%. With CCOC(=O)C1=C(Cn2cnc3ccccc32)NC(=O)NC1c1ccc(Cl)cc1 (stereo unspecified) the Potency was inconclusive: 5.62 µM [inhibitor, single point]. With O=C(CN1C(=O)CSc2ccc(S(=O)(=O)N3CCOCC3)cc21)NCc1ccc(F)cc1 the “activity, negative = inhibition” value was inactive: 14%. With CCn1c2ccccc2c2nn(C)c(=N)nc21 the “activity, negative = inhibition” value was inactive: -4.92%. With Cc1ccc(Cn2c(CN3CCC(C(=O)NCc4cccnc4)CC3)cc3ccccc32)cc1 the Potency was inconclusive: 20 µM [inhibitor, partial curve, poor fit]. With C(#CCN1CCCC1)CC(c1ccccc1)c1ccccc1 the Potency was inconclusive: 12.6 µM [inhibitor, partial curve]. In the case of COc1ccc(NC(=O)C(Cc2ccccc2)n2cccc2)cc1 (stereo unspecified), the Potency is reported as inconclusive: 25.1 µM [inhibitor, single point]. With CCCCNC(=O)c1ccc2nc(CC)c(N(CC)CCOC)n2c1 the “activity, negative = inhibition” value was inactive: 12.4%. For CC(C)NC(=O)[C@]1(C)CCC[C@@]2(C)C3CC[C@@]4(C)C[C@]3(CCC21)CC4=O (stereo partly specified), the Potency was inconclusive: 2.82 µM [inhibitor, single point]. For CCc1nc2ccc(C(=O)NCCc3c[nH]c4ccccc34)cn2c1N(C)CCCc1ccccc1, the Potency was inconclusive: 35.5 µM [inhibitor, single point]. In the case of Cc1ccccc1Cn1c(-c2cccs2)nc2ccccc21, the Potency is reported as inconclusive: 12.6 µM [inhibitor, single point]. With Cn1c(N)c(C(=O)COC(=O)c2cc(C3CC3)nc3ccccc23)c(=O)n(Cc2ccccc2)c1=O the Potency was inconclusive: 7.94 µM [inhibitor, single point]. For Cc1ccn2c(Nc3ccccc3C)c(-c3ccncc3)nc2c1, the Potency was inconclusive: 15.8 µM [inhibitor, single point] and inconclusive: 11.2 µM [inhibitor, partial curve]. In the case of COCCCNC(=O)CSc1nc2sc(C(=O)OC)c(C)c2c(=O)n1N, the “activity, negative = inhibition” value is reported as inactive: 17.2%. With COc1ccc(/C=N/NC(=O)c2[nH]c3ccc(Cl)cc3c2-c2ccccc2)c(C(=O)O)c1OC the Potency was inconclusive: 12.6 µM [inhibitor, partial curve, poor fit]. In the case of c1cncc(CNc2ncnc3ccc(-c4ccoc4)cc23)c1, the “activity, negative = inhibition” value is reported as inactive: -1.86%. With CC(=O)c1ccc2c(c1)C1C=CCC1C(c1ccc(S(=O)(=O)N3CCOCC3)cc1)N2 (stereo unspecified) the Potency was inconclusive: 0.794 µM [inhibitor, full curve, poor fit]. With COc1ccc(NS(=O)(=O)c2ccc(OC)c(OC)c2)cc1OC the Potency was inconclusive: 22.4 µM [inhibitor, single point]. With COc1cc(F)ccc1-c1csc(C(C)(O)c2ccccc2)n1 (stereo unspecified) the “activity, negative = inhibition” value was inactive: 1.91%. With O=C1CCN(C(=O)c2cccs2)c2ccccc21 the “activity, negative = inhibition” value was inactive: -3.13%. With O=C(Cc1ccc(Cl)cc1)NCCS(=O)(=O)N1CCN(c2ccccc2F)CC1 the Potency was inconclusive: 11.2 µM [inhibitor, single point]. With S=c1sc2c(Cl)ncnc2n1-c1ccccc1 the Potency was inconclusive: 22.4 µM [inhibitor, single point]. For CC(C)(C)SCCNC(=O)/C=C/c1ccc([N+](=O)[O-])cc1, the Potency was inconclusive: 35.5 µM [inhibitor, single point].
% is set by controls: 0 for no effect and ±100 for the full control effect; potency is the fitted concentration of half-maximal effect; tags give direction and shape of the fitted curve.
